The values below come from PubChem BioAssay AID488969 (Vanderbilt High Throughput Screening Facility, 2010).

The full ranking holds about 110,000 compounds; the median of “z-score” is about -0.1, and the highest 2% start at about 2. Some of the results follow.

In this experiment the target is Metabotropic glutamate receptor 8 (Rattus norvegicus) (UniProt P70579). Kind of experiment: mGluR8 Gi/Go-coupled signaling modulation – cell-based, rat, thallium flux, HTS, primary screen (AID 488969). Conditions: HEK293 rat mGluR8, GIRK (G protein-gated inwardly rectifying potassium channel) thallium flux, FluoZin2; at 10 µM; stronger effect = higher value; submaximal glutamate (EC20) added with thallium.
UniProt P70579, sequence (P70579 whole entry, looked up): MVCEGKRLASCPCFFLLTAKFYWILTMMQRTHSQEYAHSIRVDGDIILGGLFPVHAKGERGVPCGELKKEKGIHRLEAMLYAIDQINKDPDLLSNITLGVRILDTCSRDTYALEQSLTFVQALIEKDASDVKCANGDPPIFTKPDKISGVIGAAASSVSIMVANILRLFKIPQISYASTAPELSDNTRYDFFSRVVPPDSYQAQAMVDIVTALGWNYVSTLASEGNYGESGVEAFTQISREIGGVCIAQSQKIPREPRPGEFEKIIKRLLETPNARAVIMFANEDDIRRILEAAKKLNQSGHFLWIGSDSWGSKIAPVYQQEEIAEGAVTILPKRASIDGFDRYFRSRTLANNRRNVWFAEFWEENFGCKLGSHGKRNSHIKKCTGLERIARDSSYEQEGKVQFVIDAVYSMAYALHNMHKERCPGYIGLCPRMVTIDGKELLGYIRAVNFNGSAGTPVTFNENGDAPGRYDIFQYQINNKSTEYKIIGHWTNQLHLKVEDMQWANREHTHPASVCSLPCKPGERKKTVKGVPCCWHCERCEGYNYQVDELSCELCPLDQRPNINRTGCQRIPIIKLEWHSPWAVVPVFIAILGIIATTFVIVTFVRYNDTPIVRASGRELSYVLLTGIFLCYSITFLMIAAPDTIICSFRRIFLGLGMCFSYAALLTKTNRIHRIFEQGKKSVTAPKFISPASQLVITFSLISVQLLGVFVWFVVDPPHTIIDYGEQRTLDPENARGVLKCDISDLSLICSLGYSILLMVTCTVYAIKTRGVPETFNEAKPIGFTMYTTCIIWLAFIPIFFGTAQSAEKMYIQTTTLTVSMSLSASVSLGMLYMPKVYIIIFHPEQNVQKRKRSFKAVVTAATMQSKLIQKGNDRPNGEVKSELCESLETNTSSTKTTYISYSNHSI
In the case of `COc1ccc(S(=O)(=O)N(CC(=O)N2CCN(C)CC2)c2ccccc2)cc1OC`, the z-score was -0.159.

Take `CCC(=O)NC(C)C(c1cccs1)N1CCN(Cc2ccccc2)CC1` (stereo not drawn): the z-score was -0.19.

`Cc1cc(C)cc(N(CC(=O)Nc2cccc(C)n2)S(=O)(=O)c2c(C)noc2C)c1` displayed a z-score of -0.992.

For `CC1CCN(c2nc3c(c(=O)[nH]c(=O)n3C)n2Cc2ccccc2)CC1`, the z-score is -0.127.

Consider `Cn1cnnc1SCCC(=O)Nc1ccc(Cl)cc1`, for which the z-score amounted to 0.135.

Consider `CCOC(=O)C1=NN(c2cccc(C)c2)C2(S1)SC(C(C)=O)=C(C)N2c1ccccc1` (stereo not drawn), for which the z-score was found to be 0.713.

Regarding `COC(=O)c1cc(OC)c(OC)cc1NC(=O)c1cc(C)on1`, the z-score is -0.396.

For `COc1ccc(-c2cc(=O)n(-c3ccc([N+](=O)[O-])cc3)[nH]2)cc1`, the z-score was -0.347.

Compound `Cc1nnc(NC(=O)C2CCCN(S(=O)(=O)Cc3ccccc3)C2)s1` (stereo not drawn) displayed a z-score of -0.175.

`O=C(NCCCN1CCOCC1)c1ccc(Br)s1` returned a z-score of 0.0846.

With `O=C(CCC1CCCCC1)Nc1ccccc1O`, the z-score is 0.717.

`CCc1nnc(NC(=O)CSc2nccn2-c2cccc(C)c2)s1` came in with a z-score of -0.255.

Turning to `Cc1[nH]c2ccccc2c1/C=N/NC(=O)c1cc(-c2cccs2)[nH]n1`, the z-score is -0.101.

`COc1cc(OC)cc(N(C(=O)C2COc3ccccc3O2)C(C(=O)NC2CCCCC2)c2ccc(O)cc2)c1` (stereo not drawn) had a z-score of -0.751.

In turn, `CCOC(=O)CNC(=O)CSc1nnc(-c2ccco2)n1N` showed a z-score of 0.607.

In turn, `Cc1ccccc1NN1C(=O)C=CC1=O` had a z-score of -0.05.

Consider `O=C(COc1ccc(Cl)cc1)N1CCN(c2cccc(C(F)(F)F)c2)CC1`, for which the z-score is -0.457.

In turn, `CCOC(=O)C1=C(C)NC2=C(C(=O)CC(C)(C)C2)C1c1ccsc1` (stereo not drawn) displayed a z-score of -0.225.

In turn, `CCn1c(C)c(C(C)=O)c(NCc2ccccc2)nc1=S` returned a z-score of 0.38.

Compound `O=C(CSc1ncnc2ccccc12)c1ccc2c(c1)OCCO2` had a z-score of -0.224.

For `CNC(=O)c1cc2c(=O)n3cc(C)ccc3nc2n(C(C)C)c1=N`, the z-score is -0.994.

In the case of `Cc1ccc(CC(=O)OCCNC(=O)c2cccnc2)cc1`, the z-score was 0.0795.

The compound `COC(=O)c1ccccc1SC1CC(=O)N(c2cccc(C)c2)C1=O` (stereo not drawn) yielded a z-score of -0.105.

Take `CCn1c(Cc2ccccc2)nnc1SCC(=O)Nc1nccs1`: the z-score was -0.168.

In the case of `CC(=O)N/C(=C/c1ccc2c(c1)OCO2)C(=O)Nc1ccccc1`, the z-score was 0.158.

`O=C(Cn1cc(C(F)(F)F)ccc1=O)Nc1cc(S(=O)(=O)N2CCOCC2)ccc1Cl` had a z-score of -0.11.

The compound `CON(c1nc(Cl)nc(N(C)C)n1)S(=O)(=O)c1ccccc1Cl` showed a z-score of 2.79.

For `Cc1ccc(N2CC(C(=O)NC3=NCCS3)CC2=O)cc1C` (stereo not drawn), the z-score is -0.023.

For the compound `COc1cc(C(=O)NNC2=CC(=O)CC(C)(C)C2)cc(OC)c1OC`, the z-score was -0.21.

For `C=CCNC(=O)c1sc(SC)cc1-c1ccc(Cl)cc1`, the z-score is -2.38.

`NC(=O)C1(N2CCCCC2)CCN(C(=S)Nc2ccc(F)cc2)CC1` had a z-score of -0.0913.

In turn, `COc1ccc(/C=N/c2nc3ccccc3n2CCN2CCCCC2)cc1OC` had a z-score of -0.42.

Turning to `Cc1ccc(C23CC4CC(CC(NC(=O)NC(C)(C)CO)(C4)C2)C3)cc1`, the z-score worked out at 0.0693.

As for `CCCc1nc2oc(C(=O)c3ccccc3)c(N)c2c2c1COC(C)(C)C2`, the z-score is -1.12.

In turn, `CCC(CC)NC(=O)Cc1ccccc1OC` registered a z-score of -0.0578.

`Cc1cc(C)c2c(n1)nn1c(N3CCOCC3)cc(C)nc21` returned a z-score of 0.0779.

Consider `CSc1nnc(-c2sc3cc(C(F)(F)F)cnc3c2-c2ccccn2)n1C`, for which the z-score was 0.0151.

As to `CCN1CNC(=S)N(c2ccccc2OC)C1`, the z-score is -0.242.

`COc1ccccc1N1CCN(C(=O)c2cc3c(s2)CCC3)CC1`: the z-score was -1.5.

For the compound `COc1ccc(C2NC(=O)c3n[nH]c(C)c32)c(OC)c1` (stereo not drawn), the z-score was found to be 0.447.

For the compound `CCCCOc1ccc(C(=O)Nc2cc(C)c(OCC(=O)N3CCOCC3)c(C)c2)cc1`, the z-score is -0.259.

Regarding `c1ccc(N2CCN(Cc3ccnc4ccccc34)CC2)cc1`, the z-score was 0.134.

In the case of `COc1ccc(-c2nc(SCc3ccccc3)n(S(C)(=O)=O)n2)cc1`, the z-score worked out at 0.0796.

On to `Cn1c(NC(=O)c2cccs2)c(-c2cccs2)c(=O)c2ccccc21`, for which the z-score worked out at 0.899.

In turn, `COc1ccc(OC)c(N(CC(=O)NCc2ccncc2)S(C)(=O)=O)c1` returned a z-score of -0.35.

`c1ccc(COn2nnc3ccccc32)c(COn2nnc3ccccc32)c1` showed a z-score of -0.435.

As to `COc1ccccc1NC(=O)COc1ccc(/C=N/NS(=O)(=O)c2ccc(C)cc2)cc1`, the z-score is -0.382.

For `COc1ccc(C(=O)NC(CC(C)C)C(=O)O)cc1OC` (stereo not drawn), the z-score was -0.471.

For the compound `O=C(Nc1ccccc1C(=O)NC(Cc1ccccc1)C(=O)NC1CCCCC1)c1ccccc1` (stereo not drawn), the z-score is -0.052.

Consider `COc1cccc(C(=O)NCC(=O)N2CCC(C)CC2)c1`, for which the z-score was -0.917.

In turn, `CC1(C)OC(=O)C(=C2CCCN2)C(=O)O1` yielded a z-score of -0.743.

With `Cn1c2ccc(F)cc2c2ncn(CCCN(CCO)CCO)c(=O)c21`, the z-score was found to be 1.33.

`COc1ccc(-c2csc(Nc3ncccc3C)n2)cc1` showed a z-score of -0.14.

`O=C(CN1CCN(Cc2ccccc2Cl)CC1)N/N=C/C=C\c1ccccc1[N+](=O)[O-]` gave a z-score of -0.0165.

On to `COc1ccc(CN2C(=O)CS(=O)CC2=O)cc1OC`, for which the z-score was -0.18.

`COc1ccc(CNC(=O)COC(=O)c2cc(-c3cccs3)nc3ccccc23)cc1OC` came in with a z-score of 0.337.

As to `CC(C(=O)NC1CCCC1)N(Cc1ccc2c(c1)OCO2)C(=O)c1snc(C(N)=O)c1N` (stereo not drawn), the z-score is -0.536.

`COc1cc(CNCCc2ccccc2)ccc1OCc1ccc(Cl)nc1`: the z-score came out at 0.743.

Compound `CCc1ccc(NC(=O)c2cc(C)on2)cc1` had a z-score of -0.546.

In turn, `COc1ccccc1N1CCN(C(=O)C2CC=CCC2C(=O)O)CC1` (stereo not drawn) registered a z-score of 0.0423.

Turning to `Cc1cccc(NC(=O)C(=O)NCc2ccccn2)c1`, the z-score was determined as 0.329.

Take `c1ccc2c(c1)OCC(c1nn3c(Cn4nnc5ccccc54)nnc3s1)O2` (stereo not drawn): the z-score is -0.154.

`CC(C)(C)OC(=O)N1CCC(C(=O)N2CCOCC2)CC1` displayed a z-score of -0.0984.

`Cc1ccc(CSc2nc3sc(C)c(C)c3c(=O)n2Cc2ccco2)cc1` registered a z-score of 0.876.

Take `Cc1nc2ccccc2n1CCCOc1ccccc1`: the z-score was found to be 0.465.

In the case of `CCOC(=O)CSc1nc(Nc2ccc3c(c2)OCO3)c2ccccc2n1`, the z-score was -0.557.

As to `N#Cc1ccccc1/C=N/Nc1nc(-c2ccccc2)c2cc(Br)ccc2n1`, the z-score is -0.0457.

`CN1Cc2c(N3CCOCC3)nc(SCc3ccccc3)c(C#N)c2CC1(C)C`: the z-score is -0.497.

`Cc1ccc(S(=O)(=O)N2CCN(C(=O)N3CCOCC3)C2C(C)C)cc1` (stereo not drawn) had a z-score of -0.192.

`COc1ccc(Nc2ccc3nnc(-c4ccc(Br)cc4)n3n2)cc1` showed a z-score of -0.0552.

Compound `COc1ccc(C(=O)Nc2ccccc2C(=O)N/N=C/c2ccccc2OC)cc1` had a z-score of -0.231.

In turn, `COc1ccc(/C=N/NC(=O)c2ccc(CSc3nc(C)cc(C)n3)cc2)cc1O` returned a z-score of -0.825.

`O=c1cc(N2CCN(c3ccccc3)CC2)[nH]c(=O)n1C1CCCCC1` gave a z-score of 0.0881.

As to `COC(=O)c1ccccc1NC(=O)Cc1nc(-c2ccccc2)sc1-c1ccc(C)cc1`, the z-score is -0.0317.

`Cc1ccc(OCC(=O)N2CCN(C3=NS(=O)(=O)c4ccccc43)CC2)cc1` showed a z-score of -0.0914.

`O=C1c2ccccc2C(=O)N1OCc1ccc(Cl)cc1` came in with a z-score of -0.113.

With `COc1ccc(S(=O)(=O)N(C)CC(=O)N2CCN(c3ccc(F)cc3)CC2)cc1OC`, the z-score was -0.0302.

`CN(C)C(=O)CSc1nc(SCC(=O)N(C)C)n(-c2ccccc2)n1` had a z-score of 1.25.

`S=c1[nH]nc(C2CCCCC2)n1/N=C/C(Cl)=C\c1ccccc1` registered a z-score of -0.0746.

The compound `CCc1ccc(C2NC(=S)NC3=C2C(=O)CCC3)cc1` (stereo not drawn) returned a z-score of -0.233.

The compound `CC1=CN2C(=N)/C(=C/c3ccc(Sc4ccc(Cl)cc4)o3)C(=O)N=C2S1` yielded a z-score of 1.36.

For `CCOC(=O)CNC(=O)c1ccccc1Br`, the z-score came out at 0.112.

`CN(C)c1ccc(Nc2nc(-c3cccnc3)cs2)cc1`: the z-score is -1.73.

Regarding `C=CCn1c(SCC(=O)NCCCC)nc2scc(-c3ccco3)c2c1=O`, the z-score was -0.632.

`CCc1c(C)sc(NC(=O)c2ccccc2[N+](=O)[O-])c1C(N)=O` yielded a z-score of -0.0876.

In the case of `CCCOc1ccccc1C(=O)NC(CO)C(=O)O` (stereo not drawn), the z-score is 1.28.

Regarding `O=C(NCC1CCCO1)NC1CCCCC1` (stereo not drawn), the z-score came to 0.345.

`N#C/C(=C(/O)COC(=O)CSc1ccc(Cl)cc1)c1nc2ccccc2[nH]1` showed a z-score of -0.166.

As to `CCC(=O)c1ccccc1OCCSc1nc(C)cc(=O)[nH]1`, the z-score is -0.441.

In turn, `O=C(N/N=C/c1ccccc1)c1ccc(N2CCOCC2)c([N+](=O)[O-])c1` registered a z-score of -0.296.

In turn, `CCC(=O)Nc1ccc(NC(=O)CSc2nnnn2CC)cc1C` yielded a z-score of -0.425.

In the case of `CCn1cc(Br)c(C(=O)Nc2ccc(Cl)cc2Cl)n1`, the z-score came out at 0.126.

`Cc1nc2nc(-c3ccco3)[nH]n2c(=O)c1C` displayed a z-score of -1.89.

In turn, `O=C(COC(=O)c1ccccc1)c1ccc(Br)cc1` showed a z-score of -0.0783.

The compound `COC(=O)COc1ccc(S(=O)(=O)Nc2ccccc2C(=O)OC)cc1` returned a z-score of -0.179.

Compound `CC1=NN(C(=O)COc2ccccc2)C(O)(c2ccccc2)C1` (stereo not drawn) had a z-score of -0.0689.

`COc1ccc(C2CC(C(F)(F)F)n3nc(C(=O)Nc4ccc5c(c4)OCO5)cc3N2)cc1` (stereo not drawn) returned a z-score of -0.282.

Regarding `CCOc1ccc2[nH]c(=O)c(CN(CCO)Cc3nnnn3CCc3ccccc3)cc2c1`, the z-score amounted to 0.394.

As to `COCCCNS(=O)(=O)c1ccc(OC)c(Cl)c1Cl`, the z-score stood at 0.284.

Regarding `O=C(Nc1ccccc1N1CCOCC1)c1ccccc1[N+](=O)[O-]`, the z-score was -0.093.

For the compound `C=CCNC(=O)C(=O)NN=C1CCN(C)CC1`, the z-score was -0.129.

`Cc1ccc(-n2nnnc2SCC(N)=O)c(C)c1` displayed a z-score of 0.114.

As for `CCCN(CCO)Cc1ccc(Br)cc1`, the z-score came to 1.27.

Turning to `COc1cc(/C=N/Nc2cccc(C)c2)ccc1OC(=O)c1cccs1`, the z-score came to 0.189.

In the case of `CCOc1ncccc1C(=O)Oc1ccc2c(c1)OCO2`, the z-score came out at 0.582.

Consider `CC(=O)C1=C(c2ccccc2)OC(N)=C(C#N)C1c1ccccc1C` (stereo not drawn), for which the z-score is -0.715.

On to `NC(=O)c1ccc(C(F)(F)F)n(Cc2ccc(Cl)cc2)c1=O`, for which the z-score is -0.45.

In the case of `O=C(O)CCCCCN1C(=O)/C(=C\c2ccncc2)SC1=S`, the z-score stood at 0.0802.

Consider `CC(C)(C)n1ncc2c(=O)n(Cc3ccc(Cl)cc3Cl)cnc21`, for which the z-score was -1.25.

In turn, `O=C(NCc1ccco1)c1cccc(-c2nnc(-c3ccccc3)o2)c1` registered a z-score of -1.35.

In turn, `Cc1cc(C)c(NC(=O)CC(C)(C)C)c(Cl)c1` gave a z-score of 0.0682.

For the compound `CCOC(=O)N1CCC(N2C(=O)c3ccccc3C2Nc2cc(Cl)c(OC)cc2OC)CC1` (stereo not drawn), the z-score was -0.515.

Compound `CN(C)S(=O)(=O)c1cccc(NC(=O)c2cc(-c3cccs3)nn2-c2cccc(Cl)c2)c1` returned a z-score of -0.214.
